Experimental findings from ChEMBL document CHEMBL4888484, “Replenishing the malaria drug discovery pipeline: Screening and hit evaluation of the MMV Hit Generation Library 1 (HGL1) against asexual blood stage Plasmodium falciparum ,using a nano luciferase reporter read-out” (2022) are described below.

Molecules are shown by their SMILES. Hit rate of the full screen: of about 150,000 compounds, about 540 (0.36%) showed an effect of 50% or more. This is one part of the list.

In general, % Inhibition refers to the drop in the measured response relative to a control, in per cent.

The test system of the assay is Plasmodium falciparum. The experiment in a line: Primary screen in NF54 nanoGlo assay, in single point, at 2uM, 72h; a lower Z score goes with more inhibition. Format: functional, Erythrocyte. As to conditions: timepoint 72 hour.
With `CNc1snc(C)c1C(=O)N1CCN(c2cccc(Cl)c2)CC1`, the “% Inhibition” value is on record as -15% and the Z score is on record as 1.8.
As for `COc1ccc(C(=O)N2CCC3(CC2)OC[C@@H](C(=O)NCc2ccccn2)N3C(=O)c2ccccc2C)cc1OC`, the “% Inhibition” value is -8% and the Z score is 0.84.
As for `Cc1nn(CCOc2ccccc2)c(=O)n1-c1ccc(C(C)C)cc1`, the “% Inhibition” value was found to be 34% and the Z score is reported as -1.48.
For `CCOc1ccc(CCN2C(=O)CC[C@@]2(C)C(=O)NC2CCCCCCC2)cc1OCC` the same measures were 0% and -0.03.
As for `Cc1ccc(F)cc1C(=O)N1CC[C@@](O)(C2CCOCC2)[C@H](C)C1`, the “% Inhibition” value is recorded as -10% and the Z score is 1.77.
In the case of `O=C1NCCCCCCN(Cc2ccncc2)[C@@H]2CN(S(=O)(=O)c3ccc4c(c3)CCC4)CC[C@H]12`, the “% Inhibition” value is listed as 0% and the Z score is recorded as 0.06.
`Cc1cn2cc(C(=O)N[C@@H](C)c3nc(-c4ccncc4)no3)ccc2n1`: the “% Inhibition” value is recorded as -3% and the Z score came to 0.59.
For `Cc1csc(C(NC(=O)C2CC3C=CC2C3)C2CC2)n1` (centres undefined) the same measures were 5% and -0.47.
`C[C@@H](c1cccnc1)N(C)CC(=O)Nc1ccn(C)n1`: the “% Inhibition” value is reported as -11% and the Z score came out at 1.89.
For `O=C(Nc1cccnn1)N[C@@H](C1CCCC1)C(F)(F)F` the same measures were -6% and 0.57.
Regarding `COCC[C@H](C)NC(=O)NCc1sc(C)nc1C`, the “% Inhibition” value is reported as -12% and the Z score worked out at 2.31.
For `Cc1nccn1C1(C(=O)O)CCN(C(=O)NCc2cccs2)CC1`, the “% Inhibition” value is recorded as 12% and the Z score is -1.53.
For the molecule `Cc1[nH]nc(NC(=O)c2cccnc2O)c1-c1ccc2c(c1)OCO2`, the “% Inhibition” value is -10% and the Z score was 1.35.
Consider `COc1ccc(CN2Cc3cc(NC(=O)Nc4ccccc4)ccc3O[C@@H](C)C2=O)c(OC)c1`, for which the “% Inhibition” value is recorded as -9% and the Z score worked out at 0.91.
In the case of `Cc1nc([C@@H]2C[C@@H](O)CN2)n(C2CCCCC2)n1`, the “% Inhibition” value is listed as 2% and the Z score is on record as -0.27.
For `O=S(=O)(Cc1ccc(Cl)cc1)N1CCN(C2CCCC2)CC1` the same measures were -16% and 2.41.
For `COc1cccc(NC(=O)Cc2c(C)nn(-c3nc(-c4ccc(C)cc4)cs3)c2C)c1` the same measures were -13% and 1.45.
For `Cc1cc(CN2C[C@H](C)Oc3c(Cl)cccc32)no1` the same measures were 0% and 0.03.
Consider `CC(C)(CN1CC(C)(C)[C@@](C)(O)C1)N1CCCCC1`, for which the “% Inhibition” value is recorded as -13% and the Z score was determined as 2.18.
For `CCc1nn(C)cc1CNC(=O)N(C)Cc1cc(F)c(F)c(F)c1` the same measures were 5% and -0.88.
For `NS(=O)(=O)c1ccc(CCn2cnc3cnccc3c2=O)cc1` the same measures were -7% and 0.98.
In the case of `C[C@H](O)c1onc(-c2cccs2)c1C(=O)NC1CCCCC1`, the “% Inhibition” value is listed as -7% and the Z score came out at 1.13.
For `O=C(NCc1ccccn1)C(CN(Cc1ccc2c(c1)OCO2)CC1CCCO1)Oc1cccc(F)c1` (centres undefined) the same measures were 3% and -0.24.
Take `CCc1ccc(C(C)NC[C@H]2CCCN2S(C)(=O)=O)o1` (some centres undefined): the “% Inhibition” value is reported as -13% and the Z score turned out to be 1.08.
For `O=c1c2cc(Br)cc(F)c2ncn1CC[C@H]1CCCO1` the same measures were -13% and 2.09.
For `O=C(CCCOc1ccccc1)NCc1cccnc1` the same measures were -9% and 1.03.
For `CCN1CC(=O)N([C@@H](c2ccccc2)c2ccccn2)C1=O` the same measures were -2% and 0.22.
In the case of `CCOc1ccc(N2C[C@@H](C(=O)NCCc3ccco3)CC2=O)cc1`, the “% Inhibition” value worked out at 0% and the Z score was -0.05.
For `N#Cc1cnccc1CN1CCC2(CCC2)S(=O)(=O)CC1` the same measures were 1% and -0.13.
For `Cc1nc(C)c(CNC2(CN3CCN(c4ccc(F)cc4)CC3)CC2)o1` the same measures were -8% and 1.55.
`Cc1ccnn1CCC(=O)N1CCC[C@H](c2nc3ccccc3s2)C1`: the “% Inhibition” value is -15% and the Z score worked out at 1.55.
For `O=c1c2ccccc2n(Cc2ccc(F)cc2Cl)c(=O)n1Cc1ccccc1` the same measures were -2% and 0.22.
For `CN(CC1(c2ccccc2)CC1)C(=O)C[C@H]1CC(=O)NC1=O` the same measures were -13% and 1.76.
For `Cc1nn(C)c2nc(N3CCC[C@H](N(C)C)CC3)sc12` the same measures were -5% and 0.79.
For the molecule `CCCOC[C@H]1CCN(C(=O)c2c(C)ncnc2C)C1`, the “% Inhibition” value is given as -21% and the Z score was determined as 2.77.
For `Cc1cc(C(=O)NC2CCC(CO)CC2)cc(O)n1` (centres undefined) the same measures were -11% and 1.12.
`CC(=O)N1CCC(NC(C)c2cc(C)on2)C1` (centres undefined): the “% Inhibition” value came to 10% and the Z score is reported as -1.86.
For the molecule `COCCN1CCCC(NCC2CC=CCC2)C1` (centres undefined), the “% Inhibition” value is -10% and the Z score amounted to 1.39.
For `O=C(c1noc2c1CCCC2)N1CCN(C2CCCCC2)CC1`, the “% Inhibition” value is listed as -1% and the Z score is listed as 0.16.
For `CCS(=O)(=O)NC[C@H](C)NCc1cnc(C)c(C)c1` the same measures were 14% and -1.8.
Take `CC1CCC(N2C[C@@H](C(=O)OCC(C)(C)C)CC2=O)CC1` (some centres undefined): the “% Inhibition” value was 41% and the Z score was -5.32.
On to `Cc1nc(NCc2nn(C)cc2Cl)sc1C`, for which the “% Inhibition” value is -3% and the Z score was determined as 0.39.
